Measured values published in PubChem BioAssay AID360 (National Center for Advancing Translational Sciences (NCATS), 2006).
Out of some 48,000 compounds screened, about 550 (1.1%) were called active. Roughly 4% stayed inconclusive and do not appear here. No stated cut-off is given here; in the data, active means potency below about 15 µM; inconclusive means mostly about 16 µM to 33 µM; inactive means weaker than that. This is one part of the list.

Each compound was assayed against Lysosomal acid glucosylceramidase (Homo sapiens) (UniProt P04062) (assay: Glucocerebrosidase). Details: purified enzyme, resorufin glucoside fluorescence (screen aimed at inhibitors), 20 min; series mostly up to 77 µM.
Chain of UniProt P04062 (P04062 whole entry, looked up): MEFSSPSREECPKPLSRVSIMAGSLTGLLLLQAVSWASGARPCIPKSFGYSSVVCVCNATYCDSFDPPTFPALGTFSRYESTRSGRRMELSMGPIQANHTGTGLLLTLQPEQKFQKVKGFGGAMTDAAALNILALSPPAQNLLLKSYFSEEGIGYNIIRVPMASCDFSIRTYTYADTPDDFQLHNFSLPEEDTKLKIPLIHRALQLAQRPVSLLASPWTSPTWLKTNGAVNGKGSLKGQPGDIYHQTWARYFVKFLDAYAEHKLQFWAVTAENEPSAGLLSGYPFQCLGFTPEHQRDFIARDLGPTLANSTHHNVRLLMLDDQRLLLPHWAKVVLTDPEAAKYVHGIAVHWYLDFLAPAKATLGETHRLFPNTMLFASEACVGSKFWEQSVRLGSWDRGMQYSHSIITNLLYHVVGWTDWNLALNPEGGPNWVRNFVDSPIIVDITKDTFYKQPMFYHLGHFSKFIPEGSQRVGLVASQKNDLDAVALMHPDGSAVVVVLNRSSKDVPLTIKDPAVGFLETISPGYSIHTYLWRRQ
Outline: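 Normal human glucocerebrosidase (0.2 nM final) was assayed with resorufin β-D-glucopyranoside (30 uM final) in 50mM citric acid/KH2PO4, 10mM sodium taurocholate, 0.01% tween-20, pH 5.9. Compounds were titrated; fluorescence (Ex 548, Em 600) read after 20 min at RT.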
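Further: the screen sought inhibitors.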
Potency means the concentration at half of the fitted maximal effect.

Structure (SMILES) | Potency
CC(=O)c1nn(-c2cccc(Cl)c2)cc1C(=O)c1ccco1 | inactive: > 76.9 µM
CCOC(=O)N1CCN(C(=O)CN(C)S(=O)(=O)c2ccc(OC)c(OC)c2)CC1 | inactive: > 76.9 µM
CCn1c(SCC(=O)N2CCN(c3ccc(F)cc3)CC2)nc2ccccc2c1=O | inactive: > 76.9 µM
CC(C)OC(=O)CCC1(C(=O)O)CCC(=O)NC1 (stereo not given) | inactive: > 76.9 µM
O=C1CC(C(=O)NCc2ccccc2)C2(CCCC2)O1 (stereo not given) | inactive: > 76.9 µM
CCOC(=O)c1ccccc1NS(=O)(=O)c1ccc(S(=O)(=O)N2CCCC2)cc1 | inactive: > 76.9 µM
CCCn1nnc2sc3c(c2c1=O)CCC(C)C3 (stereo not given) | inactive: > 76.9 µM
COc1ccc(F)cc1S(=O)(=O)NC1CC(C)(C)NC(C)(C)C1 | inactive: > 76.9 µM
O=C(c1n[nH]c(=O)c2ccccc12)N1CCN(c2ccccc2)CC1 | inactive: > 76.9 µM
CCC(=O)N/C=C/n1cnc2cc(C(F)(F)F)ccc21 | inactive: > 76.9 µM
CCN(CC)CCN1C(=O)c2oc3ccccc3c(=O)c2C1c1ccc(C)cc1 (stereo not given) | inactive: > 76.9 µM
CCn1cc(-c2cc(C(F)(F)F)n3nc(C(=O)O)cc3n2)c(C)n1 | inactive: > 76.9 µM
O=C(NCc1ccco1)C1CCN(S(=O)(=O)c2ccc(-n3cnnn3)cc2)CC1 | inactive: > 76.9 µM
COc1ccccc1C1=NOC(Cn2c(=O)c3c(ncn3C)n(C)c2=O)C1 (stereo not given) | inactive: > 76.9 µM
CCN(c1c(C)n(C)n(-c2ccccc2)c1=O)S(C)(=O)=O | inactive: > 76.9 µM
C=CCN(CC=C)C(=O)CN1C(=O)c2ccccc2C1=O | inactive: > 76.9 µM
CCOc1ccc(NC(=O)N2CCN(CC)CC2)cc1 | active: 11.1 µM
CC(C)(C)OC(=O)N[C@@H](Cc1ccccc1)c1nnc(S(=O)(=O)Cc2cccc(F)c2)o1 | active: 14.8 µM
CCOC(=O)c1c(C)[nH]c(C(=O)O)c1C | inactive: > 76.9 µM
Cc1nc(CC(=O)N2CCN(c3cccc(C)c3C)CC2)cs1 | inactive: > 76.9 µM
Cc1ccc2nc3c(cc(C#N)c(=O)n3-c3nccs3)c(=O)n2c1 | inactive: > 76.9 µM
CCCN1CCN(C(=O)CN2C(=O)CC(C)(C)S(=O)(=O)c3ccccc32)CC1 | inactive
COc1ccc(Cl)cc1NC(=O)N1CCN(S(C)(=O)=O)CC1 | inactive: > 76.9 µM
COc1ccc2[nH]c(=O)c(CN(CCCN(C)C)C(=O)Nc3ccc(F)cc3)cc2c1 | inactive: > 76.9 µM
CCOc1ccccc1-n1c(SCC(=O)Nc2nccs2)nnc1-c1ccoc1C | inactive: > 76.9 µM
